Measurements published in the supplement of paper PMC12217912.
This is one part of the list. The full chains were built here from the parent and the listed change. Inactive controls read about 0.05.

B1: TEV protease; numbered along this chain (parent)
chain: MGESLFKGPRDYNPISSSICHLTNESDGHTTSLYGIGFGPFIITNKHLFRRNNGTLVVQSLHGVFKVKDTTTLQQHLVDGRDMIIIRMPKDFPPFPQKLKFREPQREERICLVTTNFQTKSMSSMVSDTSCTFPSGDGIFWKHWIQTKDGQCGSPLVSTRDGFIVGIHSASNFTNTNNYFTSVPKNFMELLTNQEAQQWVSGWRLNADSVLWGGHKVFMVKPEEPFQPVKEATQL

Variants of: B1
Experiment: raw area under fraction-flipped curve 0-4 h after induction (AUC4h, not background-subtracted), DNA-recorder readout of cleavage of the substrate (dimensionless); higher = more cleavage of the substrate by the protease variant
Settings: temperature: 34 °C; time window: 0-4 h after rhamnose induction
Procedure: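 In vivo DNA recorder in E. coli TOP10(DE3) ΔrhaA at 34 °C. Each TEVp single-site mutant (parent TEVp 0) is paired with a single-site variant of the 7-mer TEVs (canonical ENLYFQ|S). The substrate sits between flexible linkers in a Bxb1-sfGFP-TEVs-SsrA fusion, so cleavage stabilises Bxb1 and speeds flipping of a recombination array, read by NGS. The value is the raw area under the fraction-flipped curve over 0-4 h after rhamnose induction (AUC4h), with ≥20 reads per time point. It is not background-subtracted; inactive controls average about 0.047.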
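Note: Bxb1 expression induced with 0.2% (w/v) L-rhamnose at OD600 near 0.5, cultures sampled hourly, flipped fraction per protease–substrate barcode pair counted by paired-end Illumina sequencing.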

Variant | area with substrate ENLYFQA | area with substrate ENLYFQC | area with substrate ENLYFQD | area with substrate ENLYFQI | area with substrate ENLYFQK | area with substrate ENLYFQM | area with substrate ENLYFQN | area with substrate ENLYFQS | area with substrate ENLYFQV | area with substrate ENLYFQE
MGESLFKGPRDYNPISSSICHLTNESDGHTTSLYGIGFGPFIITNKHLFRRNNGTLVVQSLHGVFKVKDTTTLQQHLVDGRDMIIIRMPKDFPPFPQKLKFREPQREERICLVTTNFQTKSMSSMVSDTSCTFPSGDWIFWKHWIQTKDGQCGSPLVSTRDGFIVGIHSASNFTNTNNYFTSVPKNFMELLTNQEAQQWVSGWRLNADSVLWGGHKVFMVKPEEPFQPVKEATQL [G138W] | 0.0681 | 0.158 | 0.0595 | 0.0579 | 0.0577 | 0.0689 | 0.0708 | 0.153 | 0.0439 | 
MGESLFKGPRDYNPISSSICHLTNESDGHTTSLYGIGFGPFIITNKHLFRRNNGTLVVQSLHGVFKVKDTTTLQQHLVDGRDMIIIRMPKDFPPFPQKLKFREPQREERICLVTTNFQTKSMSSMVSDTSCTFPSGDGIFWKHWIQSKDGQCGSPLVSTRDGFIVGIHSASNFTNTNNYFTSVPKNFMELLTNQEAQQWVSGWRLNADSVLWGGHKVFMVKPEEPFQPVKEATQL [T147S] | 0.102 |  |  |  |  |  |  | 0.0784 |  | 0.0537
MGESLFKGPRDYNPISSSICHLTNESDGHTTSLYGIGFGPFIITNKHLFRRNNGTLVVQSLHGVFKVKDTTTLQQHLVDGRDMIIIRMPKDFPPFPQKLKFREPQREERICLVTTNFQTKSMSSMVSDTSCTFPSGDGIFWKHWIQTKDAQCGSPLVSTRDGFIVGIHSASNFTNTNNYFTSVPKNFMELLTNQEAQQWVSGWRLNADSVLWGGHKVFMVKPEEPFQPVKEATQL [G150A] | 0.0529 |  | 0.0571 |  |  |  |  | 0.0606 | 0.0638 | 
MGESLFKGPRDYNPISSSICHLTNESDGHTTSLYGIGFGPFIITNKHLFRRNNGTLVVQSLHGVFKVKDTTTLQQHLVDGRDMIIIRMPKDFPPFPQKLKFREPQREERICLVTTNFQTKSMSSMVSDTSCTFPSGDGIFWKHWIQTKDYQCGSPLVSTRDGFIVGIHSASNFTNTNNYFTSVPKNFMELLTNQEAQQWVSGWRLNADSVLWGGHKVFMVKPEEPFQPVKEATQL [G150Y] | 0.0587 | 0.0592 |  |  |  | 0.054 | 0.0632 | 0.0582 |  | 
MGESLFKGPRDYNPISSSICHLTNESDGHTTSLYGIGFGPFIITNKHLFRRNNGTLVVQSLHGVFKVKDTTTLQQHLVDGRDMIIIRMPKDFPPFPQKLKFREPQREERICLVTTNFQTKSMSSMVSDTSCTFPSGDGIFWKHWIQTKDGQCCSPLVSTRDGFIVGIHSASNFTNTNNYFTSVPKNFMELLTNQEAQQWVSGWRLNADSVLWGGHKVFMVKPEEPFQPVKEATQL [G153C] | 0.0451 | 0.0528 |  |  |  | 0.0542 | 0.0617 | 0.0561 |  | 
MGESLFKGPRDYNPISSSICHLTNESDGHTTSLYGIGFGPFIITNKHLFRRNNGTLVVQSLHGVFKVKDTTTLQQHLVDGRDMIIIRMPKDFPPFPQKLKFREPQREERICLVTTNFQTKSMSSMVSDTSCTFPSGDGIFWKHWIQTKDGQCISPLVSTRDGFIVGIHSASNFTNTNNYFTSVPKNFMELLTNQEAQQWVSGWRLNADSVLWGGHKVFMVKPEEPFQPVKEATQL [G153I] | 0.0528 | 0.0496 |  |  |  | 0.0528 |  | 0.0488 |  | 
MGESLFKGPRDYNPISSSICHLTNESDGHTTSLYGIGFGPFIITNKHLFRRNNGTLVVQSLHGVFKVKDTTTLQQHLVDGRDMIIIRMPKDFPPFPQKLKFREPQREERICLVTTNFQTKSMSSMVSDTSCTFPSGDGIFWKHWIQTKDGQCMSPLVSTRDGFIVGIHSASNFTNTNNYFTSVPKNFMELLTNQEAQQWVSGWRLNADSVLWGGHKVFMVKPEEPFQPVKEATQL [G153M] | 0.0352 | 0.0452 |  | 0.0465 | 0.0434 | 0.0811 | 0.0468 | 0.0508 | 0.0656 | 0.0651
MGESLFKGPRDYNPISSSICHLTNESDGHTTSLYGIGFGPFIITNKHLFRRNNGTLVVQSLHGVFKVKDTTTLQQHLVDGRDMIIIRMPKDFPPFPQKLKFREPQREERICLVTTNFQTKSMSSMVSDTSCTFPSGDGIFWKHWIQTKDGQCTSPLVSTRDGFIVGIHSASNFTNTNNYFTSVPKNFMELLTNQEAQQWVSGWRLNADSVLWGGHKVFMVKPEEPFQPVKEATQL [G153T] | 0.0613 | 0.0372 |  |  | 0.0632 |  | 0.0452 | 0.0464 |  | 
MGESLFKGPRDYNPISSSICHLTNESDGHTTSLYGIGFGPFIITNKHLFRRNNGTLVVQSLHGVFKVKDTTTLQQHLVDGRDMIIIRMPKDFPPFPQKLKFREPQREERICLVTTNFQTKSMSSMVSDTSCTFPSGDGIFWKHWIQTKDGQCGIPLVSTRDGFIVGIHSASNFTNTNNYFTSVPKNFMELLTNQEAQQWVSGWRLNADSVLWGGHKVFMVKPEEPFQPVKEATQL [S154I] | 0.111 |  |  | 0.0707 |  |  |  | 0.106 |  | 0.0679

Same assay, conditions: temperature: 34 °C; time window: 0-4 h after rhamnose induction

Variant | area with substrate ENLYFQG | area with substrate ENLYFQP | area with substrate ENLYFQY | area with substrate ENLYFQL | area with substrate ENLYFQW | area with substrate ENLYFQH | area with substrate ENLYFQQ | area with substrate ENLYFQR | area with substrate ENLYFQT | area with substrate ENLYFQF
MGESLFKGPRDYNPISSSICHLTNESDGHTTSLYGIGFGPFIITNKHLFRRNNGTLVVQSLHGVFKVKDTTTLQQHLVDGRDMIIIRMPKDFPPFPQKLKFREPQREERICLVTTNFQTKSMSSMVSDTSCTFPSGDGIFWKHWIQSKDGQCGSPLVSTRDGFIVGIHSASNFTNTNNYFTSVPKNFMELLTNQEAQQWVSGWRLNADSVLWGGHKVFMVKPEEPFQPVKEATQL [T147S] | 0.0803 | 0.0464 | 0.0645 |  |  |  |  |  |  | 
MGESLFKGPRDYNPISSSICHLTNESDGHTTSLYGIGFGPFIITNKHLFRRNNGTLVVQSLHGVFKVKDTTTLQQHLVDGRDMIIIRMPKDFPPFPQKLKFREPQREERICLVTTNFQTKSMSSMVSDTSCTFPSGDGIFWKHWIQTKDAQCGSPLVSTRDGFIVGIHSASNFTNTNNYFTSVPKNFMELLTNQEAQQWVSGWRLNADSVLWGGHKVFMVKPEEPFQPVKEATQL [G150A] | 0.0684 |  | 0.059 | 0.0619 | 0.0632 |  |  |  |  | 
MGESLFKGPRDYNPISSSICHLTNESDGHTTSLYGIGFGPFIITNKHLFRRNNGTLVVQSLHGVFKVKDTTTLQQHLVDGRDMIIIRMPKDFPPFPQKLKFREPQREERICLVTTNFQTKSMSSMVSDTSCTFPSGDGIFWKHWIQTKDYQCGSPLVSTRDGFIVGIHSASNFTNTNNYFTSVPKNFMELLTNQEAQQWVSGWRLNADSVLWGGHKVFMVKPEEPFQPVKEATQL [G150Y] | 0.185 | 0.0507 |  | 0.0554 | 0.0654 | 0.0511 | 0.0196 | 0.0405 | 0.0531 | 
MGESLFKGPRDYNPISSSICHLTNESDGHTTSLYGIGFGPFIITNKHLFRRNNGTLVVQSLHGVFKVKDTTTLQQHLVDGRDMIIIRMPKDFPPFPQKLKFREPQREERICLVTTNFQTKSMSSMVSDTSCTFPSGDGIFWKHWIQTKDGQCCSPLVSTRDGFIVGIHSASNFTNTNNYFTSVPKNFMELLTNQEAQQWVSGWRLNADSVLWGGHKVFMVKPEEPFQPVKEATQL [G153C] | 0.0573 | 0.0323 |  | 0.0939 |  | 0.0565 | 0.0473 |  |  | 
MGESLFKGPRDYNPISSSICHLTNESDGHTTSLYGIGFGPFIITNKHLFRRNNGTLVVQSLHGVFKVKDTTTLQQHLVDGRDMIIIRMPKDFPPFPQKLKFREPQREERICLVTTNFQTKSMSSMVSDTSCTFPSGDGIFWKHWIQTKDGQCISPLVSTRDGFIVGIHSASNFTNTNNYFTSVPKNFMELLTNQEAQQWVSGWRLNADSVLWGGHKVFMVKPEEPFQPVKEATQL [G153I] |  |  | 0.0414 | 0.0448 | 0.0369 |  |  | 0.0456 | 0.0564 | 0.0556
MGESLFKGPRDYNPISSSICHLTNESDGHTTSLYGIGFGPFIITNKHLFRRNNGTLVVQSLHGVFKVKDTTTLQQHLVDGRDMIIIRMPKDFPPFPQKLKFREPQREERICLVTTNFQTKSMSSMVSDTSCTFPSGDGIFWKHWIQTKDGQCMSPLVSTRDGFIVGIHSASNFTNTNNYFTSVPKNFMELLTNQEAQQWVSGWRLNADSVLWGGHKVFMVKPEEPFQPVKEATQL [G153M] |  |  |  | 0.0499 |  |  |  | 0.0687 |  | 
MGESLFKGPRDYNPISSSICHLTNESDGHTTSLYGIGFGPFIITNKHLFRRNNGTLVVQSLHGVFKVKDTTTLQQHLVDGRDMIIIRMPKDFPPFPQKLKFREPQREERICLVTTNFQTKSMSSMVSDTSCTFPSGDGIFWKHWIQTKDGQCTSPLVSTRDGFIVGIHSASNFTNTNNYFTSVPKNFMELLTNQEAQQWVSGWRLNADSVLWGGHKVFMVKPEEPFQPVKEATQL [G153T] | 0.0556 |  |  | 0.053 |  |  |  | 0.0469 |  | 
MGESLFKGPRDYNPISSSICHLTNESDGHTTSLYGIGFGPFIITNKHLFRRNNGTLVVQSLHGVFKVKDTTTLQQHLVDGRDMIIIRMPKDFPPFPQKLKFREPQREERICLVTTNFQTKSMSSMVSDTSCTFPSGDGIFWKHWIQTKDGQCGIPLVSTRDGFIVGIHSASNFTNTNNYFTSVPKNFMELLTNQEAQQWVSGWRLNADSVLWGGHKVFMVKPEEPFQPVKEATQL [S154I] | 0.119 |  |  |  |  |  |  |  | 0.0685 | 
